# Test results from the supplement of paper PMC10185492.
# The other results are listed elsewhere or left out. Read counts after selection give these values, which scatter widely.
# System: SARS-CoV-2 3CLpro (nsp5)
# Test: substrate phage enrichment score (protease-eluted vs HEPES control, +1 offset) (ratio); higher = better cleaved substrate
# Conditions: selection round: 4; protease elution time: 15 min
# Description: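 Random heptapeptide substrate phage display (M13 pIII fusion, heptapeptide between an N-terminal biotinylated AviTag GLNDIFEAQKIEWHE and pIII; phages immobilised on streptavidin) eluted by cleavage with 50 nM protease in 20 mM HEPES at 37 °C. Selected phages were NGS sequenced, and the enrichment score is (reads in protease sample + 1)/(reads in HEPES blank-selection control + 1).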
row,Substance,substrate phage enrichment score
1,PGATSHR,15
2,VAKGSQD,> 26
3,SPCAPSL,3.83
4,KYAQEAA,9
5,SHRSTLR,> 33
6,YYSTREQ,> 22
7,NQLKSRC,> 41
8,SDSSRLT,3.6
9,TKKTPTY,9.25
10,AYSAGMK,1.88
11,VNKEIVG,2.56
12,TTRADKS,4.8
13,VPHSLLH,> 35
14,VVYHLNV,> 25
15,RASQVTR,24
16,VRTETAR,13
17,AARRPCD,1.41
18,VQVSGPA,11
19,QSIQGGS,> 86
20,SPAKPCP,> 26
21,TWELLNR,0.0741
22,RTSVNCR,> 26
23,TVSETQR,2.29
24,YTAAHHH,0.473
25,LQDASRS,> 23

row,Substance,substrate phage enrichment score
1,VGSRLGL,10.5
2,QMCAKDS,> 21
3,EGLACPK,1
4,QASETFD,11
5,PGTSILH,> 36
6,RRSLIGR,1.36
7,GAAAHHH,0.61
8,RVGLVWG,7
9,APSHELS,> 22
10,LKCSDGT,> 41
11,CPTAHHH,0.714
12,RAKSPSR,> 28
13,DVWSNKR,2.14
14,TWGSALR,7.67
15,SHSAPVT,7.8
16,HHHHHHG,0.581
17,SVERDRV,4.25
18,VTPFKQQ,6
19,FAGTQPF,0.438
20,VAAAHHH,0.827
21,RSRTLLQ,> 51
22,LCSQLKD,> 45
23,LQKMQTR,14.6
24,VVWPEKE,2.83
25,PDRYTKE,> 24

row,Substance,substrate phage enrichment score
1,NHHHHGA,1.1
2,ATVGSGG,8.33
3,WNCKIPG,0.103
4,THGRTGI,> 24
5,KACPKNR,> 25
6,SRNLGWQ,12.3
7,DTVEPMS,0.844
8,LQAKPYA,> 21
9,DLHGPMP,> 21
10,SEPSWSA,6.67
11,RSSEGLI,> 27
12,ADECRDA,0.95
13,CGHLNRS,0.0769
14,LCLNSCS,> 21
15,AVADLKD,> 23
16,QFQECFR,3.11
17,THTRTET,> 71
18,KGRAQRN,1.44
19,GTAKPAT,0.348
20,VQSPPGS,4.86
21,NDSLSAQ,8.33
22,HLYFQGG,3
23,KKHGCAD,1.2
24,YSTKPLW,11.9
25,LDWTMET,5.5

row,Substance,substrate phage enrichment score
1,GSRLRTQ,2.67
2,SVPPNLR,4.5
3,SESMNAE,1.36
4,VKCNVDG,2.5
5,VSYDVIQ,3.4
6,AKTQSGR,0.294
7,QAPSAKQ,12
8,APWSVRQ,0.474
9,SRMPVLQ,> 21
10,KYFREYF,> 26
11,PCSLTDQ,14
12,TENMRRY,6.25
13,TGPQASR,> 26
14,VYPTKTC,> 26
15,EPGLLSR,2.43
16,ASGNLKA,1.36
17,TCRPKGN,> 100
18,AVAAHHH,0.438
19,LNSHVWK,> 32
20,RPTMRVE,> 22
21,PTKRCNG,> 23
22,KRCETGS,> 25
23,FQCVPIG,> 26
24,VNLNGPR,> 48
25,PCTPGAA,6.33

row,Substance,substrate phage enrichment score
1,HSHSGHF,0.517
2,MAAAHHH,0.769
3,KGQALLD,0.179
4,YRPESVG,3.5
5,AAVWTEK,1.88
6,VSAAHHH,0.96
7,TEQTPVT,> 57
8,RCEPHVV,1.9
9,ASLGKDQ,4.17
10,RCSANLR,> 44
11,SDETGLR,11.4
12,AAAQQHH,1.6
13,RTNEMRS,> 23
14,QYCTGCR,> 228
15,QPEEGSC,> 47
16,ESSLHVM,0.471
17,FRYRMWC,0.673
18,ADPSFPQ,5
19,CIPGVKL,3.38
20,VTQMRTP,> 68
21,SPSFGCT,> 22
22,WFDDAKG,21
23,KRHQMSG,4.1
24,TQSHQRT,9
25,TQIPNHR,0.25

row,Substance,substrate phage enrichment score
1,VVLQGGS,> 67
2,SSASVGA,0.714
3,NTTSMDR,> 24
4,SKLPRLQ,> 409
5,TPHAVLQ,> 27
6,QPCVTKD,> 23
7,QSNAALR,2.64
8,CCNMARD,12.5
9,CFTQGAR,0.125
10,ATKPADG,1.52
11,LDPQPMR,> 26
12,AQTECAS,20.2
13,GLSTLQS,> 24
14,MGCRRDL,1.51
15,QIRKDDG,> 89
16,SLGEHWK,> 27
17,SQAPVNR,2.15
18,YSPSSKA,10.5
19,ITETSCR,> 23
20,ASGYPVS,0.25
21,GCARYIR,7.4
22,LLCHETC,1
23,AAAHHHH,0.67
24,PYLPASR,> 30
25,CGPSHLM,3.27

row,Substance,substrate phage enrichment score
1,YPKQTQG,> 21
2,DSDRNVN,> 50
3,NARFPAA,1.73
4,TQDTLTR,0.375
5,EVRTPDK,1.09
6,SRPAQVQ,> 40
7,QSLEGIA,> 27
8,PAESHRP,0.163
9,TASCRLQ,> 394
10,PFSDILG,> 40
11,SCCTHLQ,29.2
12,NGITKTH,> 24
13,ADAAAHN,> 23
14,PDEDAPQ,17.5
15,ERNATFQ,1.88
16,DKATNLQ,> 138
17,QPYSLTQ,8.19
18,SHSQCTA,2.33
19,RIVLSCR,> 29
20,VSRLQSK,> 131
21,AQVADSR,0.875
22,RQVTTCS,3.6
23,CLRKSEN,1
24,DNVRENI,0.0426
25,NTHFTDR,> 24

row,Substance,substrate phage enrichment score
1,RESRPPR,> 29
2,QGYCGSN,> 42
3,TRTMPRL,> 46
4,QEWGPVL,> 43
5,YYAPSNM,> 45
6,LRKYPQC,2.38
7,ECSEPSN,> 26
8,HRGARLQ,20
9,TGWRYGK,0.087
10,PNLPTGV,> 26
11,VPMKGIN,0.471
12,ATAHHHH,0.624
13,CRGLATL,5.75
14,CSAPVML,1.44
15,PDHGCVT,23.2
16,DRETMQH,2
17,LQHDKQR,0.125
18,ATLNHLE,19
19,ASHPWCL,6
20,FDRAPTV,3.17
21,MAPSNPS,0.2
22,RDAMSSR,> 28
23,LDAAAHH,6.33
24,PGKTLLQ,11
25,QNTMPKE,3

row,Substance,substrate phage enrichment score
1,PLFQAEF,> 43
2,MRPHIII,0.754
3,GLTSAPY,> 27
4,CLPSLQG,10
5,NQHPMFR,> 25
6,LMYDGFR,> 22
7,AHEGSSR,> 28
8,ADRQNCK,1.44
9,RRPTSCQ,> 34
10,CPPTKDR,3.57
11,HVTEPGM,> 23
12,SLQGGSA,0.444
13,RSKLQCQ,> 61
14,TTKPSAR,1.64
15,GLCHGQA,1.67
16,GWQCDLR,1.4
17,CTGLSKM,> 135
18,NQPLGAG,1.82
19,ANDATYG,> 72
20,RTKTQVS,> 30
21,PIDRHWQ,1.55
22,QWTPYQQ,> 53
23,HHTPPTR,> 27
24,IPQEVNP,> 22
25,ELSSYLQ,> 74

row,Substance,substrate phage enrichment score
1,APQALLQ,> 49
2,SVSLQGG,> 25
3,TSTWLQN,> 84
4,FGAQPSR,4.5
5,SPSVSLH,> 24
6,NRHGNYW,10.5
7,SNEAAHH,14.2
8,SPAWQTH,3.67
9,HQALCPV,1.02
10,DVPEVAL,2.3
11,LRSWRSN,1.27
12,DLSAELQ,> 65
13,RGRLCRV,10.5
14,CRAAAHH,0.818
15,AYHPQQS,> 26
16,GYRHGAC,2.65
17,LTRLQSE,60.2
18,KGSVVLH,> 51
19,VSSSPVT,0.771
20,LKKCLVP,2.43
21,NCFPSER,> 26
22,RDTRPLG,0.333
23,FRVVVRP,1.38
24,NRPSQLR,0.867
25,AQNNSHR,2.52

row,Substance,substrate phage enrichment score
1,NCAQDNR,> 26
2,TNKFDRN,0.1
3,PRNVRLQ,> 80
4,MTTGNPV,9.89
5,TREESNQ,0.837
6,TGVTQAA,> 33
7,KAVRCWT,> 21
8,TECSSYG,> 26
9,WSLLQSN,> 45
10,ESRTCCA,2.6
11,KHDAAFQ,> 26
12,MSQTSRE,> 22
13,HCRCITS,2.25
14,MTPHTKQ,> 30
15,SSLTQGV,> 43
16,PLWSVSG,0.375
17,NKNSPLR,3.5
18,EQDGAQN,> 23
19,PPVKNPR,1.76
20,SVGKLKN,1.78
21,TNGAMPA,> 23
22,IYRDGWQ,> 24
23,IHTEVYR,> 26
24,DITHQAE,3.5
25,ASQTIHK,0.8

row,Substance,substrate phage enrichment score
1,TSKPIAA,3.43
2,NKPGLTS,> 123
3,CTEWQGH,0.308
4,RQLMEKP,8.43
5,ESAAHHH,0.4
6,PAPIHFR,> 92
7,PSSIHRE,> 28
8,CTMSSEH,2.1
9,SMPCDLR,0.625
10,YAQYPTG,7
11,QPESCTW,0.3
12,AREKSTW,2.46
13,SCINKNA,> 24
14,YGAKNVP,> 24
15,IESPNNR,0.5
16,ASVGMQQ,1.4
17,QHTEKNR,> 25
18,KALDTTV,10.3
19,MNCEWPV,0.24
20,VLSMPVH,> 422
21,GPAAHHH,0.38
22,TCLSHGY,4
23,WTRLQGN,> 47
24,VSTTEPR,1.3
25,ALYFQGG,1.62

row,Substance,substrate phage enrichment score
1,AHPPVHP,> 21
2,SSETQES,1
3,ERHCRGE,3.7
4,NRKSNLQ,> 30
5,PVSPTSA,0.143
6,CILQALG,> 46
7,CPVSLVR,1.63
8,AETTTMH,> 63
9,GGARHDG,2.43
10,SAAANQH,1
11,TSLQSGS,104
12,CAHDVLR,> 34
13,QQQPTIR,> 36
14,SHGKVRV,2.89
15,TWSPKSG,1.78
16,AAPEILN,0.643
17,SVLQCRP,> 21
18,GQSMPAG,> 41
19,VAENDSP,1.42
20,QKHLENG,0.722
21,PMGPESH,> 29
22,VRQEPSE,1.9
23,VLSPMDD,3.67
24,ANSMYAD,5.25
25,HIPLTLG,29.5

row,Substance,substrate phage enrichment score
1,KSRGGSA,0.143
2,SKNRLAE,> 21
3,HLNFQGG,0.506
4,DMAAHHH,0.353
5,TRNSPSQ,> 32
6,WCMPYAT,> 47
7,SPAAEMS,0.273
8,STIDNVR,1.24
9,SPGIVES,0.824
10,GRTAEDR,1.89
11,GAMNGRS,2.29
12,GLYRGQR,7.33
13,PHGCDLY,1.5
14,TPAGPNN,9
15,VSGEPWV,0.446
16,VANSGVT,0.474
17,LETTTLQ,> 35
18,PVLPPAQ,8.1
19,PESRQLC,> 24
20,YHHHHHG,1
21,TRRPDVA,4.4
22,RNPMSKA,1.56
23,THDPGFE,> 27
24,TCTELQS,1.55
25,RSALTRQ,6.29

row,Substance,substrate phage enrichment score
1,FIYESVG,> 35
2,ESWGCQR,> 42
3,MTAAHHH,1.43
4,SSSEIRQ,> 235
5,LLLNSGR,4
6,PIVLKCE,> 26
7,KPTCVLS,6.5
8,ESNMLHQ,> 31
9,CRENPTR,0.667
10,AESSKAR,> 62
11,GYSIQSR,> 31
12,HAPSISR,0.16
13,ENFWGPR,1.71
14,QRVTSSV,> 32
15,RRAPVLQ,45
16,IGTYSRQ,0.706
17,HLNGPTH,> 25
